# Results reported in the supplement of paper PMC8728848.
# Some of the results follow.
# B1: Epa23 (Candida glabrata) (protein)
# chain: MGSSHHHHHHSSGLVPRGSHMIPNPFEGTINNFPSGCSPNHGLYNRGLTMELYNYSYIHPQSIQSYFNTSTLKKMEKGQCWDPSYLDVNYPRTGYKTHNRFAKVNGIDGILDFEFNPTRSCVPSKGQLPQNYNYPLQFTLSNFTMLLYGYFKPKVTAKHTFTIFADDLLFLNFGAGNAFDCCQQQDTIDDFGNYQAYALWGSDTQQNTLTVNLDANIYYPIRMFYNNRDFKGALNMYFTTDESNTKINDFSGYLFNIPDSSEGCPAHISYETECGNVSG
# How the values were obtained:
# Experiment in all cases: glycan array binding signal (z-score within array); higher = stronger binding
# Conditions in all cases: glycan notation: IUPAC condensed, linker removed
# [1] = biological target: Gal(b1-3)GlcNAc(b1-6)GalNAc
# How it was run: (§1)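 Glycan array data came from 3228 arrays in the Consortium for Functional Glycomics database, and only arrays with an available protein sequence were kept. Glycan names were put into IUPAC-condensed notation, and columns mapping to the same glycan were averaged. The binding signal is a within-array Z-score, averaged across arrays of one protein sequence run at different concentrations or buffers and across linkers. A negative Z-score can be read as non-binding.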
# [2] = biological target: Gal(b1-3)GlcNAc(b1-6)[Gal(b1-3)]GalNAc
# How it was run: as §1
# Gal(b1-3)GlcNAc6S = biological target: Gal(b1-3)GlcNAc6S
# How it was run: as §1
# [3] = biological target: Gal(b1-3)[Fuc(a1-4)]GlcNAc
# How it was run: as §1
# [4] = biological target: Gal(b1-3)[Fuc(a1-4)]GlcNAc(b1-2)Man
# How it was run: as §1
# [5] = biological target: Gal(b1-3)[Fuc(a1-4)]GlcNAc(b1-2)Man(a1-3)[Gal(b1-3)[Fuc(a1-4)]GlcNAc(b1-2)Man(a1-6)]Man(b1-4)GlcNAc(b1-4)[Fuc(a1-6)]GlcNAc
# How it was run: as §1
# [6] = biological target: Gal(b1-3)[Fuc(a1-4)]GlcNAc(b1-3)Gal(b1-3)[Fuc(a1-4)]GlcNAc
# How it was run: as §1
# [7] = biological target: Gal(b1-3)[Fuc(a1-4)]GlcNAc(b1-3)Gal(b1-4)[Fuc(a1-3)]GlcNAc
# How it was run: as §1
# [8] = biological target: Gal(b1-3)[Fuc(a1-4)]GlcNAc(b1-6)GalNAc
# How it was run: as §1
# [9] = biological target: Gal(b1-3)[GlcNAc(b1-6)]GalNAc
# How it was run: as §1
# [10] = biological target: Gal(b1-3)[Neu5Ac(a2-6)]GalNAc
# How it was run: as §1
# [11] = biological target: Gal(b1-3)[Neu5Ac(a2-6)]GlcNAc(b1-4)Gal(b1-4)Glc
# How it was run: as §1
# [12] = biological target: Gal(b1-3)[Neu5Ac(b2-6)]GalNAc
# How it was run: as §1
# Gal(b1-4)Gal = biological target: Gal(b1-4)Gal
# How it was run: as §1
# [13] = biological target: Gal(b1-4)GalNAc(a1-3)[Fuc(a1-2)]Gal(b1-4)GlcNAc
# How it was run: as §1
# [14] = biological target: Gal(b1-4)GalNAc(b1-3)[Fuc(a1-2)]Gal(b1-4)GlcNAc
# How it was run: as §1
# Gal(b1-4)Glc = biological target: Gal(b1-4)Glc
# How it was run: as §1
# Gal(b1-4)Glc6S = biological target: Gal(b1-4)Glc6S
# How it was run: as §1
# Gal(b1-4)GlcNAc = biological target: Gal(b1-4)GlcNAc
# How it was run: as §1
# [15] = biological target: Gal(b1-4)GlcNAc(a1-6)Gal(b1-4)GlcNAc
# How it was run: as §1
# Gal(b1-4)GlcNAc(b1-2)Man = biological target: Gal(b1-4)GlcNAc(b1-2)Man
# How it was run: as §1
# [16] = biological target: Gal(b1-4)GlcNAc(b1-2)Man(a1-3)Man(b1-4)GlcNAc(b1-4)GlcNAc
# How it was run: as §1
# [17] = biological target: Gal(b1-4)GlcNAc(b1-2)Man(a1-3)[Gal(b1-4)GlcNAc(b1-2)Man(a1-6)]Man(b1-4)GlcNAc(b1-4)GlcNAc
# How it was run: as §1
# [18] = biological target: Gal(b1-4)GlcNAc(b1-2)Man(a1-3)[Gal(b1-4)GlcNAc(b1-2)Man(a1-6)]Man(b1-4)GlcNAc(b1-4)[Fuc(a1-6)]GlcNAc
# How it was run: as §1
# [19] = biological target: Gal(b1-4)GlcNAc(b1-2)Man(a1-3)[Gal(b1-4)GlcNAc(b1-2)Man(a1-6)][Gal(b1-4)GlcNAc(b1-4)]Man(b1-4)GlcNAc(b1-4)[Fuc(a1-6)]GlcNAc
# How it was run: as §1
# [20] = biological target: Gal(b1-4)GlcNAc(b1-2)Man(a1-3)[Gal(b1-4)GlcNAc(b1-2)Man(a1-6)][GlcNAc(b1-4)]Man(b1-4)GlcNAc(b1-4)[Fuc(a1-6)]GlcNAc
# How it was run: as §1
# [21] = biological target: Gal(b1-4)GlcNAc(b1-2)Man(a1-3)[GlcNAc(b1-2)Man(a1-6)]Man(b1-4)GlcNAc(b1-4)GlcNAc
# How it was run: as §1
# [22] = biological target: Gal(b1-4)GlcNAc(b1-2)Man(a1-3)[GlcNAc(b1-4)][Gal(b1-4)GlcNAc(b1-2)Man(a1-6)]Man(b1-4)GlcNAc(b1-4)GlcNAc
# How it was run: as §1
# [23] = biological target: Gal(b1-4)GlcNAc(b1-2)Man(a1-3)[Man(a1-6)]Man(b1-4)GlcNAc(b1-4)GlcNAc
# How it was run: as §1
# [24] = biological target: Gal(b1-4)GlcNAc(b1-2)Man(a1-6)Man(b1-4)GlcNAc(b1-4)GlcNAc
# How it was run: as §1
# [25] = biological target: Gal(b1-4)GlcNAc(b1-2)Man(a1-6)[GlcNAc(b1-2)Man(a1-3)]Man(b1-4)GlcNAc(b1-4)GlcNAc
# How it was run: as §1
# [26] = biological target: Gal(b1-4)GlcNAc(b1-2)Man(a1-6)[Man(a1-3)]Man(b1-4)GlcNAc(b1-4)GlcNAc
# How it was run: as §1
# [27] = biological target: Gal(b1-4)GlcNAc(b1-2)[Gal(b1-4)GlcNAc(b1-4)]Man(a1-3)[Gal(b1-4)GlcNAc(b1-2)Man(a1-6)]Man(b1-4)GlcNAc(b1-4)GlcNAc
# How it was run: as §1
# [28] = biological target: Gal(b1-4)GlcNAc(b1-2)[Gal(b1-4)GlcNAc(b1-4)]Man(a1-3)[Gal(b1-4)GlcNAc(b1-2)[Gal(b1-4)GlcNAc(b1-6)]Man(a1-6)]Man(b1-4)GlcNAc(b1-4)GlcNAc
# How it was run: as §1
# [29] = biological target: Gal(b1-4)GlcNAc(b1-2)[Gal(b1-4)GlcNAc(b1-4)]Man(a1-3)[GlcNAc(b1-4)][Gal(b1-4)GlcNAc(b1-2)Man(a1-6)]Man(b1-4)GlcNAc(b1-4)GlcNAc
# How it was run: as §1
# [30] = biological target: Gal(b1-4)GlcNAc(b1-2)[Gal(b1-4)GlcNAc(b1-4)]Man(a1-3)[GlcNAc(b1-4)][Gal(b1-4)GlcNAc(b1-2)[Gal(b1-4)GlcNAc(b1-6)]Man(a1-6)]Man(b1-4)GlcNAc(b1-4)GlcNAc
# How it was run: as §1
# [31] = biological target: Gal(b1-4)GlcNAc(b1-2)[Gal(b1-4)GlcNAc(b1-6)]Man(a1-6)[Gal(b1-4)GlcNAc(b1-2)Man(a1-3)]Man(b1-4)GlcNAc(b1-4)GlcNAc
# How it was run: as §1
# [32] = biological target: Gal(b1-4)GlcNAc(b1-2)[Gal(b1-4)GlcNAc(b1-6)]Man(a1-6)[Gal(b1-4)GlcNAc(b1-2)Man(a1-3)]Man(b1-4)GlcNAc(b1-4)[Fuc(a1-6)]GlcNAc
# How it was run: as §1
# [33] = biological target: Gal(b1-4)GlcNAc(b1-2)[Gal(b1-4)GlcNAc(b1-6)]Man(a1-6)[GlcNAc(b1-4)][Gal(b1-4)GlcNAc(b1-2)Man(a1-3)]Man(b1-4)GlcNAc(b1-4)GlcNAc
# How it was run: as §1
# [34] = biological target: Gal(b1-4)GlcNAc(b1-2)[Gal(b1-4)GlcNAc(b1-6)]Man(a1-6)[GlcNAc(b1-4)][Gal(b1-4)GlcNAc(b1-2)[Gal(b1-4)GlcNAc(b1-4)]Man(a1-3)]Man(b1-4)GlcNAc(b1-4)[Fuc(a1-6)]GlcNAc
# How it was run: as §1
# [35] = biological target: Gal(b1-4)GlcNAc(b1-3)Gal(b1-3)GalNAc
# How it was run: as §1
# [36] = biological target: Gal(b1-4)GlcNAc(b1-3)Gal(b1-3)GlcNAc
# How it was run: as §1
# [37] = biological target: Gal(b1-4)GlcNAc(b1-3)Gal(b1-4)Glc
# How it was run: as §1
# [38] = biological target: Gal(b1-4)GlcNAc(b1-3)Gal(b1-4)GlcNAc
# How it was run: as §1
# [39] = biological target: Gal(b1-4)GlcNAc(b1-3)Gal(b1-4)GlcNAc(b1-2)Man(a1-3)[Gal(b1-4)GlcNAc(b1-3)Gal(b1-4)GlcNAc(b1-2)Man(a1-6)]Man(b1-4)GlcNAc(b1-4)GlcNAc
# How it was run: as §1
binder,measurement,setting,value
B1,glycan array binding signal (z-score),[1],-0.152
same,glycan array binding signal (z-score),[2],-0.069
same,glycan array binding signal (z-score),Gal(b1-3)GlcNAc6S,-0.074
same,glycan array binding signal (z-score),[3],-0.273
same,glycan array binding signal (z-score),[4],-0.153
same,glycan array binding signal (z-score),[5],-0.198
same,glycan array binding signal (z-score),[6],-0.248
same,glycan array binding signal (z-score),[7],-0.208
same,glycan array binding signal (z-score),[8],-0.177
same,glycan array binding signal (z-score),[9],-0.04
same,glycan array binding signal (z-score),[10],0.224
same,glycan array binding signal (z-score),[11],-0.171
same,glycan array binding signal (z-score),[12],-0.124
same,glycan array binding signal (z-score),Gal(b1-4)Gal,-0.087
same,glycan array binding signal (z-score),[13],-0.292
same,glycan array binding signal (z-score),[14],-0.248
same,glycan array binding signal (z-score),Gal(b1-4)Glc,-0.134
same,glycan array binding signal (z-score),Gal(b1-4)Glc6S,0.808
same,glycan array binding signal (z-score),Gal(b1-4)GlcNAc,0.097
same,glycan array binding signal (z-score),[15],0.803
same,glycan array binding signal (z-score),Gal(b1-4)GlcNAc(b1-2)Man,-0.254
same,glycan array binding signal (z-score),[16],0.377
same,glycan array binding signal (z-score),[17],-0.075
same,glycan array binding signal (z-score),[18],-0.062
same,glycan array binding signal (z-score),[19],-0.297
same,glycan array binding signal (z-score),[20],-0.232
same,glycan array binding signal (z-score),[21],-0.125
same,glycan array binding signal (z-score),[22],-0.279
same,glycan array binding signal (z-score),[23],-0.016
same,glycan array binding signal (z-score),[24],-0.17
same,glycan array binding signal (z-score),[25],-0.223
same,glycan array binding signal (z-score),[26],-0.182
same,glycan array binding signal (z-score),[27],0.305
same,glycan array binding signal (z-score),[28],0.486
same,glycan array binding signal (z-score),[29],-0.021
same,glycan array binding signal (z-score),[30],0.186
same,glycan array binding signal (z-score),[31],0.12
same,glycan array binding signal (z-score),[32],0.405
same,glycan array binding signal (z-score),[33],-0.053
same,glycan array binding signal (z-score),[34],0.324
same,glycan array binding signal (z-score),[35],0.201
same,glycan array binding signal (z-score),[36],-0.008
same,glycan array binding signal (z-score),[37],0.903
same,glycan array binding signal (z-score),[38],0.139
same,glycan array binding signal (z-score),[39],0.484
